“And” between values parts separate entries of the source, which are not always exact repeats. Equal values may be shown once. Out of some 420,000 compounds screened, about 64,000 (15%) were called active. The inconclusive results got no clear call from the source; some entries with a clear call stand among them for comparison. Calls follow the shape of the dose curve; as a rule, active = well fitted inhibition curve with a large enough effect; inconclusive = small, poorly fitted or top-dose-only effect; inactive = flat fitted curve, though single readings scatter. Potencies beside an inconclusive call are fits to weak or partial responses and may not hold up.
Assay: qHTS for Inhibitors of human tyrosyl-DNA phosphodiesterase 1 (TDP1): qHTS in cells in absence of CPT; also: nearly all actives have a fitted effect of over 55% in size
Conditions: DT40 Tdp1-/- hTDP1 cells, no CPT, ATP luminescence, 48 h; activity change, negative = growth inhibition: at 46.2 µM (top of the series) unless noted
How it was run: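 Chicken DT40 Tdp1-/- cells stably complemented with human TDP1 were seeded at 400 cells/well with DMSO in place of 20 nM camptothecin. After compound pinning, cells grew at least 48 hr at 37 °C; viability read by CellTiter-Glo luminescence.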
With `Cn1c(=O)c2c(nc(/C=C/c3cccc(Cl)c3)n2C)n(C)c1=O` the Potency was “inactive”. With `Cc1cc(-c2ccc(S(=O)(=O)Nc3cccc(C(F)(F)F)c3)s2)on1` the Potency was inconclusive: 23.1 µM [inhibitor, single point]. With `CCc1ccc(N2CC(C(=O)NNC(=O)c3ccc(F)cc3)CC2=O)cc1` (stereo unspecified) the Potency was “inactive”. With `Cc1ccc(-c2nnn(C(C)C(=O)N3c4ccccc4CCc4ccccc43)n2)cc1` (stereo unspecified) the Potency was active: 29.1 µM. With `COc1ccc(-c2[nH]ncc2/C=C(/C#N)C(=O)NC2CCCCC2)cc1` the Potency was inconclusive: 25.9 µM [inhibitor, single point]. For `Cc1cc(C)nc(Nc2nc3ccccc3o2)n1`, the Potency was inconclusive: 23.1 µM [inhibitor, single point]. With `Cc1c(C(=O)N(C)c2ccccc2)oc2c1C(O)CC(C)(C)C2` (stereo unspecified) the Potency was inconclusive: 23.1 µM [inhibitor, single point]. In the case of `CC(C)CNC(=O)COC(=O)c1c2c(nc3ccccc13)CCC2`, the Potency is reported as inconclusive: 32.6 µM [inhibitor, single point]. In the case of `COC(=O)[C@@H]1C[C@]2(Br)c3ccccc3N(S(=O)(=O)c3ccccc3)[C@@H]2N1C(=O)OC`, the Potency is reported as inconclusive: 18.4 µM [inhibitor, partial curve]. With `CC(C)c1cccc(C2=CC(=O)C[C@H](c3ccc4c(c3)OCO4)C2)c1` the Potency was inconclusive: 32.6 µM [inhibitor, single point]. In the case of `Cc1c(C)n(CCc2ccccc2)c2ncnc(NCCCN(C)C)c12`, the Potency is reported as inconclusive: 29.1 µM [inhibitor, single point]. In the case of `C=CCN(c1ccccc1)S(=O)(=O)c1ccc2[nH]cc(C(=O)NCCOC)c(=O)c2c1`, the Potency is reported as inconclusive: 5.17 µM [inhibitor, partial curve]. For `COc1ccc(NC(=O)Cn2c(=O)n(Cc3nc(C)no3)c(=O)c3cc4c(cc32)OCO4)cc1`, the Potency was inconclusive: 16.4 µM [inhibitor, single point]. For `CC(=O)Nc1ccc(CC#N)cc1`, the Potency was “inactive”. In the case of `COc1ccc2[nH]c(=O)c(CN(C)C(=O)c3ccncc3)cc2c1`, the Potency is reported as “inactive”. With `C=CCN(C(=O)CSc1nc2ccsc2c(=O)n1Cc1ccccn1)c1ccccc1` the Potency was inconclusive: 25.9 µM [inhibitor, single point]. For `CSCCC(NC(=O)c1ccccc1)C(=O)N1CCN(C(c2ccccc2)c2ccccc2)CC1` (stereo unspecified), the Potency was inconclusive: 20.6 µM [inhibitor, single point]. In the case of `COc1ccc(NC(=O)c2cc3c(=O)n(Cc4cccs4)ccc3nc2C)c(OC)c1`, the Potency is reported as inconclusive: 16.4 µM [inhibitor, single point]. In the case of `Cc1cc(C)c(NC(=O)C2CCN(C(=O)N3CC(C)Oc4ccc(Cl)cc43)CC2)c(C)c1` (stereo unspecified), the Potency is reported as active: 20.6 µM. With `Cc1ccc(CNC(=O)CCCNC(=O)c2ccc(Cl)cc2)n1C` the Potency was “inactive”. In the case of `CC(C)Oc1ccc(C(=O)O)cc1`, the Potency is reported as “inactive”. For `Cc1nnc(SCC(=O)NC2CCCc3c2cnn3-c2ccccc2F)o1` (stereo unspecified), the Potency was “inactive”. In the case of `Cc1ccc(OCCN2C(=O)C(=O)c3cc(C)ccc32)cc1`, the Potency is reported as inconclusive: 0.92 µM [inhibitor, full curve, poor fit]. In the case of `N#Cc1ccc(Oc2cccc3cccnc23)c([N+](=O)[O-])c1`, the Potency is reported as inconclusive: 20.6 µM [inhibitor, single point]. For `CN(C)CCCc1cc(C(=O)Nc2ccc(-c3ccncc3)cc2)ccc1O`, the Potency was inconclusive: 29.9 µM [inhibitor, partial curve, poor fit]. In the case of `COc1ccc(NC(=O)C2CC(=O)N/C(=N/NC(=O)c3ccc(Cl)cc3)S2)cc1` (stereo unspecified), the Potency is reported as “inactive”. In the case of `Cc1nc2c(=O)[nH]c3ccccc3c2o1`, the Potency is reported as “inactive”. With `COc1ccc(CCN2C(=O)CC(C(C)c3ccccc3)C2=O)cc1OC` (stereo unspecified) the Potency was “inactive”. With `Cn1cccc1/C=N/NC(=O)CNc1cccc2ccccc12` the Potency was inconclusive: 16.4 µM [inhibitor, single point]. In the case of `Cc1c(C(=O)N(C)C)sc2c1c(=O)n(-c1ccccc1C(F)(F)F)c(=O)n2Cc1ccccc1C#N`, the Potency is reported as “inactive”. For `CCNc1ncc2nc(-c3ccccc3)c(=O)n(Cc3ccc(F)cc3)c2n1`, the Potency was “inactive”. In the case of `CSc1ccccc1-c1nnc(-c2ccc(Cl)cc2)o1`, the Potency is reported as inconclusive: 18.4 µM [inhibitor, partial curve]. With `O=C(c1ccccc1)c1coc2ccc(O)c(CN3CCOCC3)c12` the Potency was inconclusive: 18.4 µM [inhibitor, single point]. In the case of `CSCC[C@H](NC(=O)OC(C)(C)C)C(=O)NCC1CCC(C(=O)O)CC1` (stereo partly specified), the Potency is reported as “inactive”. For `CN(c1ccccc1)S(=O)(=O)c1cccc(NC(=O)c2ccc(=O)[nH]c2)c1`, the Potency was inconclusive: 29.1 µM [inhibitor, single point]. In the case of `NS(=O)(=O)c1ccc(CNC(=O)c2ccc(S(=O)(=O)C(F)F)cc2)cc1`, the Potency is reported as “inactive”. With `CCc1[nH]nc(C(=O)N2CCCC(N3CCN(c4ccccc4C)CC3)C2)c1C` (stereo unspecified) the Potency was inconclusive: 29.1 µM [inhibitor, single point]. For `O=S1(=O)C[C@@H](N2CCC[C@@H]2CO)[C@H](COCc2ccccc2)N1`, the Potency was “inactive”. With `Cc1cc(C)c(C#N)c(SCC(=O)Nc2ccc(S(=O)(=O)Nc3ncccn3)cc2)n1` the activity change, negative = growth inhibition was inconclusive: -16.6% [inhibitor]. With `CCOC(=O)C1CCN(c2c([N+](=O)[O-])c(C(Cl)Cl)nn2-c2ccccc2)CC1` the Potency was inconclusive: 23.1 µM [inhibitor, single point]. In the case of `Cc1ccc2nc(Nc3nc(CSc4nc5ccccc5s4)cc(=O)[nH]3)nc(C)c2c1`, the Potency is reported as active: 14.6 µM. With `CCN(Cc1ccccc1)c1ccc(/C=N/NS(=O)(=O)c2ccc(C)c([N+](=O)[O-])c2)cc1` the Potency was active: 23.1 µM. For `CCOc1cc(C=O)ccc1OCCn1c([N+](=O)[O-])cnc1C`, the Potency was “inactive”. For `Cc1cccc(N(C)C(=O)c2cnn(-c3ccccc3)c2C)c1`, the activity change, negative = growth inhibition was inconclusive: -7.1% [inhibitor]. In the case of `Cc1cc(C(=O)CSc2cccc[n+]2[O-])c(C)n1-c1ccccc1`, the Potency is reported as inconclusive: 14.6 µM [inhibitor, single point]. In the case of `COC(=O)CC1=NN(c2ccc(OC)cc2)C(=O)/C1=C\c1ccc(Cl)cc1`, the Potency is reported as inconclusive: 20.6 µM [inhibitor, single point]. In the case of `CC(=O)c1ccc2c3c(cccc13)CC2`, the Potency is reported as “inactive”. For `CC(C)CN(C#N)c1nc(N2CCOCC2)nc(N2CCOCC2)n1`, the Potency was active: 11.6 µM. For `O=C(c1ccc(=O)[nH]c1)N(Cc1ccco1)C1(C(=O)NC2CCCCC2)CCCCC1`, the Potency was inconclusive: 15.8 µM [inhibitor, single point]. With `Cc1ccccc1Cn1c(=O)n(CC2CCC(C(=O)N3CCC(C)CC3)CC2)c(=O)c2sccc21` (stereo unspecified) the Potency was active: 16.4 µM. With `O=S(=O)(CC(CN1CCOCC1)N1CCOCC1)c1ccccc1` (stereo unspecified) the Potency was “inactive”. In the case of `CCN(CC)c1ccc(NC(=O)CN2C(=O)NC3(CCc4ccccc43)C2=O)cc1` (stereo unspecified), the Potency is reported as inconclusive: 29.1 µM [inhibitor, single point]. With `COc1ccc(Cl)cc1S(=O)(=O)N1CCC(C(=O)NCCC2=CCCCC2)CC1` the Potency was inconclusive: 23.1 µM [inhibitor, single point]. For `COc1cc(OC)c(C(=O)NNC(=S)NC2CCCCC2)cc1OC`, the Potency was inconclusive: 2.31 µM [inhibitor, partial curve, poor fit]. For `O=c1cc(-c2cccc(Br)c2)oc2cccc(O)c12`, the Potency was inconclusive: 9.2 µM [inhibitor, partial curve]. With `O=C(NC(Sc1ccc(Cl)cc1)C(=O)O)c1ccccc1` (stereo unspecified) the Potency was inconclusive: 10.3 µM [inhibitor, partial curve, poor fit]. In the case of `OC(c1ccccc1)c1ncc(-c2ccccc2F)[nH]1` (stereo unspecified), the Potency is reported as “inactive”. With `COCC(=O)Nc1nc2n(n1)C(c1ccc(Cl)cc1)CC(c1ccc(OC)cc1)N2` (stereo unspecified) the Potency was inconclusive: 29.1 µM [inhibitor, single point]. With `O=C(Nc1ccc(F)c(Cl)c1)C1Cc2c(-c3ccc4c(c3)OCO4)ccnc2O1` (stereo unspecified) the Potency was inconclusive: 23.1 µM [inhibitor, single point]. In the case of `COc1cccc(NC(=O)c2ccccc2-c2nc(-c3ccc(F)cc3)no2)c1`, the Potency is reported as inconclusive: 29.1 µM [inhibitor, single point]. For `COCCN=c1scc(-c2cc(OC)ccc2OC)n1/N=C/c1c[nH]c2ccccc12`, the Potency was inconclusive: 20.6 µM [inhibitor, single point]. In the case of `CCOc1ccc(NC(=O)CN(c2cc(C)cc(C)c2)S(=O)(=O)c2c(C)noc2C)cc1`, the Potency is reported as inconclusive: 29.1 µM [inhibitor, single point]. With `CCOc1cc(C=NN2CCCCCC2)ccc1O` the Potency was inconclusive: 25.9 µM [inhibitor, single point]. With `Cc1ccc2nc(-c3ccc(SCC(=O)N4CCc5ccccc54)nc3)[nH]c2c1` the Potency was active: 13 µM. In the case of `CCOC(=O)C1(CCOc2ccccc2)CCN(Cc2cccc3nonc23)CC1`, the Potency is reported as inconclusive: 29.1 µM [inhibitor, single point]. With `COc1cc(C(=O)OCCCOC(=O)c2cc(OC)c(OC)c(OC)c2)cc(OC)c1OC` the Potency was inconclusive: 29.1 µM [inhibitor, single point]. With `CCc1nn(CCCN2CCN(c3cccc(Cl)c3)CC2)c(=O)n1CCOc1ccccc1` the Potency was active: 15 µM and active: 5.31 µM. With `Cn1cc(-c2nc3cnc(Oc4ccccc4)nc3n(CCC#N)c2=O)c2ccccc21` the Potency was “inactive”. For `CCc1noc(C)c1C(=O)NCCc1ccccc1`, the Potency was “inactive”. With `COc1ccc(-c2noc(C(=O)NCc3ccc(F)cc3)n2)cc1OC` the Potency was “inactive”. With `Cc1ccc(C(=O)COC(=O)CCCC(=O)Nc2cc(C(F)(F)F)ccc2Cl)cc1C` the Potency was “inactive and inconclusive: 8.2 µM [inhibitor, partial curve]”.

Source: PubChem BioAssay AID686978 (National Center for Advancing Translational Sciences (NCATS), 2013)
% is scaled to controls: 0 for no effect and ±100 for the full control effect; potency is read from the fitted curve at half-maximal effect; tags tell the direction and shape of the fitted curve.
